Data from the supplement of paper PMC3334620.
Over roughly 33,000 sequences, “E-score (-0.5 to 0.5)” has its median near -0.054; the highest 2% begin near 0.35. Some of the results follow.

Molecular target: T1, Stb5 (UniProt P38699)
T1 sequence: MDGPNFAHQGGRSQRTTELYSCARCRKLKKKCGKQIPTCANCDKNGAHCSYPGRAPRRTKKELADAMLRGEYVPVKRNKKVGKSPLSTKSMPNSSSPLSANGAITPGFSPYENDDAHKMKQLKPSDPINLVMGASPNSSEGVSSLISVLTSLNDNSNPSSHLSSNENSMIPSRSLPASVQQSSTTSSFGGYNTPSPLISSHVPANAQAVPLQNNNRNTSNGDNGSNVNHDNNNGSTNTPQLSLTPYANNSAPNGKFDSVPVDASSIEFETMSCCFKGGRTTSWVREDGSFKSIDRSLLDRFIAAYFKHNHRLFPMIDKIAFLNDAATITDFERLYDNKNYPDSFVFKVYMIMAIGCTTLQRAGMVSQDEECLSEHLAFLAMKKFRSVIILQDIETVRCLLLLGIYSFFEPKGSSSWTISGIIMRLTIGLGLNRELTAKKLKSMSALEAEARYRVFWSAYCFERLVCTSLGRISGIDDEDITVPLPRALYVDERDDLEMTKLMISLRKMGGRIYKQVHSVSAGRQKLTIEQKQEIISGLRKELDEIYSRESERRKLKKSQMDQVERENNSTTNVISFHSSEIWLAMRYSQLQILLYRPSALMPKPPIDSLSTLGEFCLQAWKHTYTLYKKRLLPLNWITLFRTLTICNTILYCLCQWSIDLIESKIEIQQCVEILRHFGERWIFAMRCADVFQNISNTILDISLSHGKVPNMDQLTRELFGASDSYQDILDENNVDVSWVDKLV
Test: PBM E-score (8-mer binding enrichment) (E-score (-0.5 to 0.5)); higher = stronger / more preferred TF binding; most listed sequences are background and not binding sites
Details: protein concentration: 200 nM; construct: GST-full length
Method in brief: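 E-scores (a modified Wilcoxon-Mann-Whitney statistic) were assigned by the Universal PBM Analysis Suite to every ungapped eight-base word pooled with its reverse complement. The input came from universal all-10-mer Agilent arrays made double-stranded by primer extension and probed with GST-tagged yeast transcription factors at about 100-200 nM. Fluorescent anti-GST detected bound protein, and masliner normalised the scans.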

| Sequence | PBM E-score |
| --- | --- |
| AGCGCTTA | 0.0748 |
| ATGTGAAC | -0.163 |
| ACGACAAC | -0.153 |
| TAAATTAA | 0.104 |
| CCTTGATA | -0.0995 |
| ATTGCACC | 0.246 |
| ATCTAGCA | -0.114 |
| GGCGCTTA | 0.228 |
| ATATTAAT | 0.0976 |
| GATCGACA | -0.215 |
| GTCGCAGA | 0.0129 |
| AATCTTGT | -0.00431 |
| ACCCTCCC | 0.077 |
| CCATTTGA | 0.032 |
| CGTGCTAA | -0.169 |
| AACGAAGG | -0.23 |
| CTTCAGTC | -0.0437 |
| TCTTCGCA | 0.0604 |
| TACTCCAA | -0.181 |
| ACGTCAAC | -0.0756 |
| ATTGAGTG | -0.174 |
| GATCAGGC | -0.0739 |
| TCCAAGGA | 0.0882 |
| AGTCTAGA | -0.15 |
| ATCGCAAA | -0.106 |

| Sequence | PBM E-score |
| --- | --- |
| GAGCACTA | -0.13 |
| GCTAATCA | -0.0524 |
| AAGATGGA | -0.132 |
| GCTGCCCA | -0.238 |
| AGCGTTGG | -0.236 |
| GCGCTGGA | -0.00934 |
| TATTGCCA | -0.0262 |
| ATTCGCTC | -0.0604 |
| CGAAGTCA | -0.248 |
| GATGTTCC | -0.0385 |
| ACAGCTCC | -0.0573 |
| TACAATCA | -0.121 |
| AAATGTAG | -0.124 |
| AAGAGATA | -0.294 |
| ATTCGTAC | -0.0154 |
| GGGCTCAA | 0.116 |
| GATGCCGC | 0.349 |
| GGATCCAC | -0.0724 |
| CAGAGGTA | -0.237 |
| CTAACACC | 0.401 |
| CGAGCTCG | -0.119 |
| GGCGTAGA | 0.026 |
| AATTCGCA | -0.0302 |
| GATCACGA | -0.157 |
| CGCGTAGC | 0.115 |

| Sequence | PBM E-score |
| --- | --- |
| CCCTACGG | 0.158 |
| GACACTAC | 0.00991 |
| ATACTCGC | 0.0238 |
| CTAGAATA | 0.0173 |
| CCTTCAGC | -0.169 |
| CAGACATA | -0.0364 |
| CCGCGGAG | 0.298 |
| AAACGGCA | 0.225 |
| ACTAGCGA | 0.07 |
| ATACATCA | -0.0827 |
| GTCTTCAA | -0.405 |
| AAACGTAT | 0.0227 |
| ACCGTAAA | 0.153 |
| ACTGGCAA | -0.119 |
| AAATGTGG | 0.0621 |
| GCGCAAAA | 0.0272 |
| AGGGAGTA | -0.109 |
| CACGTTGC | -0.137 |
| AAGTTCAT | 0.0526 |
| GAGCGCGC | 0.0402 |
| GGACCCCC | -0.0328 |
| ACTTGCAC | -0.0278 |
| AGACCACC | -0.104 |
| AGGCGGCC | 0.235 |
| AGGTCGAC | -0.236 |

| Sequence | PBM E-score |
| --- | --- |
| GGCCAACC | -0.103 |
| TATACGAA | -0.00442 |
| AATGATAA | 0.0347 |
| ACACTCCT | -0.0969 |
| AATTCCAC | -0.0996 |
| TCTGGCCA | -0.248 |
| ATGGGGCG | -0.0875 |
| AGAACTGA | -0.221 |
| CCTTAGCA | -0.0612 |
| GCGATACC | 0.0758 |
| ATCGACGC | -0.0925 |
| GGCCAGAC | -0.0267 |
| ATTTAGTA | 0.0808 |
| GGATTAAA | 0.323 |
| GCGGTTGA | 0.0123 |
| ATGTTCAA | 0.121 |
| CCGCACGG | 0.305 |
| CAGGTTGG | -0.235 |
| ACAATGCA | -0.157 |
| CCGCCTTA | 0.246 |
| CGAAAGCC | 0.0408 |
| CGTGGTTA | -0.0972 |
| AAGACACG | -0.0417 |
| AGTCCGTC | 0.389 |
| AGTACTAA | -0.156 |

| Sequence | PBM E-score |
| --- | --- |
| AAGTTCCT | -0.098 |
| AGATTCCA | -0.193 |
| ATAGTAGA | -0.164 |
| ACGATGCA | -0.0665 |
| AGTATCTG | -0.2 |
| ACTGTTGA | -0.119 |
| TATATGAA | -0.112 |
| GAGGTATA | -0.0269 |
| ACGCACTA | -0.153 |
| CTTTGCCC | -0.104 |
| AGCGCGGA | 0.272 |
| ATGTATGG | -0.0509 |
| CCCCTGAA | -0.185 |
| ATCTATTA | -0.102 |
| AGACCCCC | -0.165 |
| CATCCAAG | -0.301 |
| AGCACGAT | -0.227 |
| CCTTCAAG | -0.127 |
| AAGGGTAG | -0.194 |
| GCTAGTTA | -0.0825 |
| GCAGAATA | 0.115 |
| CAACTCAC | -0.124 |
| ACGAGCCC | -0.143 |
| TGAACAAA | 0.00178 |
| AGGATATG | 0.00887 |

| Sequence | PBM E-score |
| --- | --- |
| ATTCTATG | 0.0222 |
| ATACCGAA | 0.242 |
| ATACGGGC | 0.103 |
| CAGTCTGG | -0.133 |
| AAGTCAAA | -0.0252 |
| AAGCACGG | 0.0437 |
| TGAGGACA | -0.194 |
| GCTCGCAC | 0.0814 |
| TCTAACCA | -0.167 |
| CGGCCGGA | 0.242 |
| CCTACAGC | 0.0176 |
| AAACATTA | -0.125 |
| CCGCTTAG | 0.188 |
| CCCACAGG | 0.124 |
| CAGAAATA | 0.036 |
| CTCCGAAG | 0.227 |
| AACGGCAC | 0.306 |
| ATGCCCTC | -0.0595 |
| GAGCTCGA | -0.257 |
| ATCATCGC | 0.0263 |
| CCTTTGTC | -0.103 |
| CTACAGAA | -0.216 |
| CCCTTGTA | -0.165 |
| TCCGGGAA | 0.212 |
| CAGAGATC | -0.177 |

| Sequence | PBM E-score |
| --- | --- |
| TAGGCACA | -0.21 |
| GTGATTTA | 0.0455 |
| CCCTCACG | -0.043 |
| AATCGTGG | -0.208 |
| AATTTTTG | -0.207 |
| AGACGACG | -0.0652 |
| ATCCAGTA | -0.123 |
| GCATGCCC | 0.12 |
| AAAAGGAG | -0.145 |
| GGGTTGAC | 0.0256 |
| CCTGACTC | -0.153 |
| CATCTTCA | -0.148 |
| CAGAGATG | -0.119 |
| GCCCATCA | -0.157 |
| AGACCTTC | -0.109 |
| AACTGAAA | -0.16 |
| CTCTCGCA | -0.257 |
| CCCAAGAC | -0.163 |
| GCGCCCGC | 0.154 |
| GCGATCCC | -0.095 |
| CATCGGTC | 0.312 |
| CCAGCGCG | -0.0713 |
